PubChem BioAssay (NCI)
“And” between values parts separate entries of the source, which are not always exact repeats. Equal entries are not always repeated.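 Exposure lasted 48 hours, with cells grown in 96-well plates and compounds tested at five concentrations. GI50 = concentration required for 50% inhibition of growth. At the TGI there is no net growth.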

system: NCI-H322M lung; assay: NCI-60 cell line screen, 48 h

Question: How did the GI50 turn out when `CN(C)CCCNC(=O)c1cncnc1Nc1ccc(OCc2cccc(F)c2)c(Cl)c1` was run?
Answer: The GI50 was 1.69 µM.

Question: What about the TGI of the same compound?
Answer: Its TGI is 3.06 µM.

Question: Which GI50 does the source give for `CC/C(=C(/c1ccc(O)cc1)c1ccc(OCCN2CCCCC2)cc1)c1ccc(OC)cc1` here?
Answer: The GI50 was 2.58 µM.

Question: And the TGI?
Answer: The TGI was 11 µM.

Question: For `CCOC(=O)[C@@H](C)C[C@H](Cc1ccccc1)NC(=O)c1csc([C@@H](C[C@H](C(C)C)N(C)C(=O)[C@H](CC)NC(=O)[C@H]2CCCCN2C)OC(C)=O)n1`, which GI50 is on record?
Answer: Its GI50 is 0.00429 µM.

Question: What about the TGI of the same compound?
Answer: The TGI was over 16.7 µM.

Question: How did the TGI turn out when `CCOC(=O)c1ccc(NC(=O)SCCC(=O)O)cc1` was run?
Answer: The TGI was over 100 µM.

Question: With `Clc1cc(Br)c2c3c(c(Br)cc(Cl)c13)C(Br)=C2Br` as the compound, how does the TGI read?
Answer: The TGI was over 100 µM.

Question: With `CCOC(=O)C1=CC(C)(C(=O)OCC)Nc2c(nc(OC)[nH]c2=O)N1` (centres undefined) as the compound, how does the TGI read?
Answer: Its TGI is over 10 µM.

Question: For `COC(=O)c1c2c(cc3c1CC1(Cc4cc5c(cc4C1=O)CCC5)C3)CCC2` (centres undefined), which TGI is on record?
Answer: The TGI was over 100 µM.

Question: Which GI50 does the source give for `CCN(CC)CCNc1cc(-c2cccc(OC(F)(F)F)c2)nc2ccc(N3CCCC3)cc12` here?
Answer: Its GI50 is 1.63 µM and 1.99 µM and 2.6 µM.

Question: What about the TGI of the same compound?
Answer: Its TGI is 3.82 µM and 4.49 µM and 7.95 µM.

Question: How did the TGI turn out when `CC[C@@H]1C[C@H]2CC3c4[nH]c5ccc(O)cc5c4CCN(C2)C31` was run?
Answer: Its TGI is over 100 µM.

Question: `Cc1nc2ccccc2c(=O)n1NC(=S)Nc1ccc(Cl)cc1[N+](=O)[O-]` was tested. Which TGI did it give?
Answer: Its TGI is over 100 µM.

Question: How did the TGI turn out when `Cc1ccc2[nH]c3c(c2c1)C1CCC(C(C)(C)C)CC1C1C(=O)N(c2ccc4c(c2)OCO4)C(=O)C31` (centres undefined) was run?
Answer: The TGI was 15.2 µM.

Question: For `N#CC1=C(N)NC(=S)NC12Nc1ccccc1N2`, which GI50 is on record?
Answer: The GI50 was 27.4 µM.

Question: What about the TGI of the same compound?
Answer: The TGI was 96.9 µM.

Question: With `O=S(O)CCCSSc1ccccc1` as the compound, how does the TGI read?
Answer: Its TGI is over 100 µM.

Question: `Cc1cc2c(c3oc(C4(C)OC4C4OC4C)cc(=O)c13)C(=O)c1c(O)c(C3CC(C)(N(C)C)C(O)C(C)O3)cc(C3CC(N(C)C)C(O)C(C)O3)c1C2=O` (centres undefined) was tested. Which GI50 did it give?
Answer: Its GI50 is 0.00265 µM and 0.000311 µM.

Question: And the TGI?
Answer: The TGI was 0.00899 µM.

Question: With `CN(C)/C=N/NC(=O)/C(C#N)=C/N(C)C` as the compound, how does the TGI read?
Answer: Its TGI is over 100 µM.

Question: What does the source list for `CN(C)CCOC(c1ccccc1)c1ccccc1`?
Answer: GI50: 35.5 µM; TGI: 50.6 µM and > 100 µM

Question: How did the TGI turn out when `SC1CCCN(Cc2ccccc2)C1` (centres undefined) was run?
Answer: Its TGI is over 100 µM.

Question: How did the GI50 turn out when `CC(=O)Oc1cc2c(OC(C)=O)c(-c3c(C)cc4c(C(C)C)c(OC(C)=O)c(OC(C)=O)cc4c3OC(C)=O)c(C)cc2c(C(C)C)c1OC(C)=O` was run?
Answer: The GI50 was 6.23 µM and 6.88 µM and 10.4 µM.

Question: And the TGI?
Answer: Its TGI is 16.5 µM and 22.5 µM and 32.8 µM.

Question: For `COC(=O)C1C2CC3C1C3C2C(=O)OC` (centres undefined), which TGI is on record?
Answer: The TGI was over 100 µM.

Question: Which TGI does the source give for `CC(=O)O[C@H]1CCC2[C@@H]3CCC4Cc5nc6c(nc5C[C@]4(C)C3CC[C@@]21C)CC1CC[C@@H]2C(CC[C@@]3(C)C2CC[C@@H]3C(C)CCCC(C)C)[C@@]1(C)C6` (some centres undefined) here?
Answer: Its TGI is over 100 µM.

Question: For `C#CCCCOc1ncccn1`, which TGI is on record?
Answer: The TGI was over 100 µM.

Question: How did the TGI turn out when `COc1ccc(C=C(c2ccc(OCc3ccccc3)cc2)c2ccc(OCc3ccccc3)cc2)cc1` was run?
Answer: Its TGI is over 100 µM.

Question: With `O=C1OC2CC=CC1C2` (centres undefined) as the compound, how does the TGI read?
Answer: The TGI was over 100 µM.

Question: For `C=CCSSCC=C`, which TGI is on record?
Answer: Its TGI is over 100 µM.

Question: For `CCc1ccc2c(c1)N(CCO)C1=C(C(=O)OC1)C2c1cccc(Cl)c1` (centres undefined), which GI50 is on record?
Answer: Its GI50 is 10.8 µM.

Question: And the TGI?
Answer: Its TGI is 28 µM.

Question: With `COc1ccc2oc(C(=O)O)c3c2c1CCC3` as the compound, how does the TGI read?
Answer: The TGI was over 100 µM.

Question: Which TGI does the source give for `COc1cccc(Cc2cc(=O)c3ccc(C)nc3[nH]2)c1` here?
Answer: The TGI was over 100 µM.

Question: What does the source list for `O=S(=O)(Nc1cc(Cl)ccc1Cl)c1ccc(-c2cnc(C3CC3)o2)cc1`?
Answer: GI50: 6.1 µM; TGI: > 100 µM

Question: How did the TGI turn out when `[O-][n+]1onc2c1/C(=N/O)CCC2` was run?
Answer: Its TGI is over 100 µM.

Question: Which TGI does the source give for `COc1ccc(OC)c(-c2cc(=O)c3c(OC)c(OC)c(OC)c(OC)c3o2)c1` here?
Answer: The TGI was over 100 µM.

Question: For `CC1(C)CCC(C)(C)c2c1ccc(O)c2Cc1c(O)ccc2c1C(C)(C)CCC2(C)C`, which TGI is on record?
Answer: Its TGI is 5.89 µM.

Question: How did the GI50 turn out when `Cc1cn2c(/C=N/N=C(N)N)c(-c3cccnc3)nc2s1` was run?
Answer: Its GI50 is 17.5 µM.

Question: What about the TGI of the same compound?
Answer: The TGI was 32 µM.

Question: `CC[C@@]1(O)C(=O)OCc2c1cc1n(c2=O)Cc2c-1nc1cc3c(cc1c2C)OCO3` was tested. Which GI50 did it give?
Answer: Its GI50 is 0.00151 µM.

Question: And the TGI?
Answer: The TGI was 29.7 µM.

Question: `CCOC(=O)C(C)(C)C(O)C(C)C` (centres undefined) was tested. Which TGI did it give?
Answer: The TGI was over 100 µM.

Question: For `CC1=C([Te]c2ccc(O)cc2)C(=O)c2ccccc2C1=O`, which GI50 is on record?
Answer: The GI50 was 2.31 µM.

Question: And the TGI?
Answer: The TGI was 9.49 µM.

Question: For `CC(=O)O[C@H]1C(=O)[C@@]2(C)[C@H]([C@H](OC(=O)c3ccccc3)[C@]3(O)C[C@H](OC(=O)[C@H](O)[C@@H](NC(=O)C(C)(C)C)c4ccccc4)C(C)=C1C3(C)C)[C@]1(OC(C)=O)CO[C@@H]1C[C@@H]2O`, which TGI is on record?
Answer: The TGI was over 10 µM.

Question: Which GI50 does the source give for `Cc1ccc(-c2nc(N3CCCNCC3)c3oc(-c4ccccc4)nc3n2)cc1` here?
Answer: Its GI50 is 1.71 µM.

Question: And the TGI?
Answer: Its TGI is 3.08 µM.

Question: Which TGI does the source give for `O=C(COC(=O)c1cccc2c(=O)c3ccccc3[nH]c12)Nc1ccccc1` here?
Answer: The TGI was over 100 µM.

Question: Which TGI does the source give for `Cc1nc(C(N)=S)sc1C(=O)CC(=O)C(=O)Nc1nc2ccccc2[nH]1` here?
Answer: The TGI was over 100 µM.

Question: Which TGI does the source give for `CC(=O)C1(N=Nc2ccc(S(N)(=O)=O)cc2)CCOC1=O` (centres undefined) here?
Answer: Its TGI is over 100 µM.

Question: `O=C(NCc1ccco1)c1ccc(NC2=C(Cl)C(=O)N(Cc3ccccc3)C2=O)cc1` was tested. Which GI50 did it give?
Answer: The GI50 was 20.4 µM.

Question: What about the TGI of the same compound?
Answer: Its TGI is 46.9 µM.

Question: Which TGI does the source give for `O=C1CCCC2C3CC(CN12)C1CCCCN1C3` (centres undefined) here?
Answer: The TGI was over 100 µM.

Question: With `CN(C)CCCCN1c2ccccc2Sc2ccc(C(=O)c3ccccc3)cc21` as the compound, how does the TGI read?
Answer: Its TGI is 5.96 µM.

Question: `CC(C)=CCN1c2ccc(Cl)cc2NC(=O)CC1C` (centres undefined) was tested. Which TGI did it give?
Answer: Its TGI is over 100 µM.

Question: How did the GI50 turn out when `O=C(Nc1nc2ccc(F)cc2s1)c1cccnc1Nc1ccc(Cl)cc1` was run?
Answer: The GI50 was 3.87 µM.

Question: And the TGI?
Answer: The TGI was over 100 µM.

Question: With `COc1cc(S(=O)(=O)Nc2nc(-c3ccc(N4C(=O)/C(=C/c5ccccc5[N+](=O)[O-])N=C4c4ccccc4)cc3)cs2)ccc1Cl` as the compound, how does the TGI read?
Answer: The TGI was over 100 µM.

Question: With `O=C(NCc1ccncc1)C12CC3CC(C1)CC(c1ccc(Cl)cc1)(C3)C2` as the compound, how does the GI50 read?
Answer: The GI50 was 13.9 µM.

Question: And the TGI?
Answer: Its TGI is 26.9 µM.
